Measurements as given in the supplement of paper PMC8728848.
This is one part of the list.

Experiments:
Experiment in all cases: glycan array binding signal (z-score within array); higher = stronger binding
Conditions in all cases: glycan notation: IUPAC condensed, linker removed
[1] = target: Gal(b1-4)GlcNAc(b1-6)GalNAc
Outline: (§1)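 The binding signal is a Z-score computed within each array. Data were drawn from 3228 arrays in the Consortium for Functional Glycomics database, restricted to those with a known protein sequence. Scores were averaged over arrays of the same protein sequence at different concentrations or buffers, and over linkers, and negative values can be taken as non-binding.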

[2] = target: Gal(b1-4)GlcNAc(b1-6)[Gal(b1-3)]GalNAc
Outline: as §1

[3] = target: Gal(b1-4)GlcNAc(b1-6)[Gal(b1-3)]GlcNAc
Outline: as §1

[4] = target: Gal3S(b1-3)GalNAc
Outline: as §1

[5] = target: Gal3S(b1-3)GlcNAc
Outline: as §1

[6] = target: Gal3S(b1-3)[Fuc(a1-4)]GlcNAc
Outline: as §1

[7] = target: Gal3S(b1-4)Glc
Outline: as §1

[8] = target: Gal3S(b1-4)Glc6S
Outline: as §1

[9] = target: Gal3S(b1-4)GlcNAc
Outline: as §1

[10] = target: Gal3S(b1-4)GlcNAc6S
Outline: as §1

[11] = target: Gal3S6S(b1-4)GlcNAc
Outline: as §1

[12] = target: Gal3S6S(b1-4)GlcNAc6S
Outline: as §1

[13] = target: Gal4S(b1-4)GlcNAc
Outline: as §1

[14] = target: Gal4S6S(b1-4)GlcNAc
Outline: as §1

[15] = target: Gal6S(b1-4)Glc
Outline: as §1

[16] = target: Gal6S(b1-4)Glc6S
Outline: as §1

[17] = target: Gal6S(b1-4)GlcNAc
Outline: as §1

[18] = target: GalNAc(a1-3)Gal
Outline: as §1

[19] = target: GalNAc(a1-3)GalNAc
Outline: as §1

[20] = target: GalNAc(b1-3)Gal(a1-4)Gal(b1-4)GlcNAc
Outline: as §1

[21] = target: GalNAc(b1-4)GlcNAc
Outline: as §1

[22] = target: Glc(a1-4)Glc
Outline: as §1

[23] = target: Glc(a1-6)Glc(a1-6)Glc
Outline: as §1

[24] = target: Glc(b1-4)Glc
Outline: as §1

[25] = target: Glc(b1-6)Glc
Outline: as §1

[26] = target: GlcA(b1-3)Gal
Outline: as §1

[27] = target: GlcA(b1-6)Gal
Outline: as §1

[28] = target: GlcNAc(a1-3)Gal(b1-4)GlcNAc
Outline: as §1

[29] = target: GlcNAc(a1-6)Gal(b1-4)GlcNAc
Outline: as §1

[30] = target: GlcNAc(b1-2)Gal(b1-3)GlcNAc
Outline: as §1

[31] = target: GlcNAc(b1-2)Man(a1-3)[GlcNAc(b1-2)Man(a1-6)]Man(b1-4)GlcNAc(b1-4)GlcNAc
Outline: as §1

[32] = target: GlcNAc(b1-3)Gal
Outline: as §1

[33] = target: GlcNAc(b1-3)Gal(b1-3)GalNAc
Outline: as §1

[34] = target: GlcNAc(b1-3)Gal(b1-4)Glc
Outline: as §1

[35] = target: GlcNAc(b1-3)Gal(b1-4)GlcNAc
Outline: as §1

[36] = target: GlcNAc(b1-3)Gal(b1-4)GlcNAc(b1-3)Gal(b1-4)GlcNAc
Outline: as §1

[37] = target: GlcNAc(b1-3)GalNAc
Outline: as §1

[38] = target: GlcNAc(b1-3)[GlcNAc(b1-4)][GlcNAc(b1-6)]GlcNAc
Outline: as §1

[39] = target: GlcNAc(b1-3)[GlcNAc(b1-6)]Gal(b1-4)GlcNAc
Outline: as §1

[40] = target: GlcNAc(b1-3)[GlcNAc(b1-6)]GlcNAc
Outline: as §1

[41] = target: GlcNAc(b1-4)Gal(b1-4)GlcNAc
Outline: as §1

[42] = target: GlcNAc(b1-4)GlcNAc(b1-4)GlcNAc
Outline: as §1

[43] = target: GlcNAc(b1-4)GlcNAc(b1-4)GlcNAc(b1-4)GlcNAc(b1-4)GlcNAc
Outline: as §1

[44] = target: GlcNAc(b1-4)GlcNAc(b1-4)GlcNAc(b1-4)GlcNAc(b1-4)GlcNAc(b1-4)GlcNAc
Outline: as §1

[45] = target: GlcNAc(b1-4)[GlcNAc(b1-6)]GalNAc
Outline: as §1

B1: X56-1 (Clostridium perfringens), P26831 (protein)
chain: MGSSHHHHHHSSGLVPRGSHMASDPNRIIATYISNRQDAPTGNPDNIFDNNASTELVYKNPNRIDVGTYVGVKYSNPITLNNVEFLMGANSNPNDTMQKAKIQYTVDGREWIDLEEGVEYTMPGAIKVENLDLKVRGVRLIATEARENTWLGVRDINVNKKEDSNSGVEF
With B1 as the binder, how does the “glycan array binding signal (z-score)” value [1] read?
Its value is -0.316.

What about the “glycan array binding signal (z-score)” value [2] of the same binder?
Its value is -0.092.

What about the “glycan array binding signal (z-score)” value [3] of the same binder?
Its value is -0.215.

What about the “glycan array binding signal (z-score)” value [4] of the same binder?
The value was -0.167.

What about the “glycan array binding signal (z-score)” value [5] of the same binder?
Its value is -0.19.

What about the “glycan array binding signal (z-score)” value [6] of the same binder?
The value was 0.479.

And the “glycan array binding signal (z-score)” value [7]?
The value was 0.003.

What about the “glycan array binding signal (z-score)” value [8] of the same binder?
The value was 0.301.

What about the “glycan array binding signal (z-score)” value [9] of the same binder?
Its value is -0.244.

And the “glycan array binding signal (z-score)” value [10]?
The value was 0.127.

And the “glycan array binding signal (z-score)” value [11]?
Its value is -0.196.

And the “glycan array binding signal (z-score)” value [12]?
Its value is -0.181.

What about the “glycan array binding signal (z-score)” value [13] of the same binder?
Its value is -0.067.

What about the “glycan array binding signal (z-score)” value [14] of the same binder?
Its value is -0.22.

And the “glycan array binding signal (z-score)” value [15]?
Its value is -0.189.

What about the “glycan array binding signal (z-score)” value [16] of the same binder?
Its value is -0.278.

And the “glycan array binding signal (z-score)” value [17]?
Its value is 0.38.

What about the “glycan array binding signal (z-score)” value [18] of the same binder?
The value was -0.382.

What about the “glycan array binding signal (z-score)” value [19] of the same binder?
Its value is -0.016.

What about the “glycan array binding signal (z-score)” value [20] of the same binder?
The value was -0.5.

What about the “glycan array binding signal (z-score)” value [21] of the same binder?
The value was -0.278.

What about the “glycan array binding signal (z-score)” value [22] of the same binder?
Its value is -0.425.

And the “glycan array binding signal (z-score)” value [23]?
The value was -0.371.

What about the “glycan array binding signal (z-score)” value [24] of the same binder?
The value was 0.021.

And the “glycan array binding signal (z-score)” value [25]?
Its value is -0.025.

What about the “glycan array binding signal (z-score)” value [26] of the same binder?
Its value is -0.247.

And the “glycan array binding signal (z-score)” value [27]?
The value was -0.246.

And the “glycan array binding signal (z-score)” value [28]?
The value was -0.256.

And the “glycan array binding signal (z-score)” value [29]?
The value was 0.366.

What about the “glycan array binding signal (z-score)” value [30] of the same binder?
The value was 0.418.

And the “glycan array binding signal (z-score)” value [31]?
The value was -0.442.

What about the “glycan array binding signal (z-score)” value [32] of the same binder?
Its value is -0.038.

What about the “glycan array binding signal (z-score)” value [33] of the same binder?
The value was 0.035.

And the “glycan array binding signal (z-score)” value [34]?
The value was -0.355.

What about the “glycan array binding signal (z-score)” value [35] of the same binder?
Its value is -0.395.

What about the “glycan array binding signal (z-score)” value [36] of the same binder?
The value was -0.172.

What about the “glycan array binding signal (z-score)” value [37] of the same binder?
The value was -0.086.

What about the “glycan array binding signal (z-score)” value [38] of the same binder?
Its value is -0.04.

What about the “glycan array binding signal (z-score)” value [39] of the same binder?
The value was -0.255.

And the “glycan array binding signal (z-score)” value [40]?
The value was -0.276.

And the “glycan array binding signal (z-score)” value [41]?
The value was -0.371.

And the “glycan array binding signal (z-score)” value [42]?
Its value is -0.303.

And the “glycan array binding signal (z-score)” value [43]?
Its value is -0.241.

What about the “glycan array binding signal (z-score)” value [44] of the same binder?
Its value is -0.079.

And the “glycan array binding signal (z-score)” value [45]?
Its value is -0.516.
